Results as given in article PMC4538817.
These are yes or no findings as the source states them, for the method shown. Binding seen in cells or lysates may run through a third protein. Some results given as binding are weak or reduced against the parent protein; the word gives no strength. For some of these results: Tags and fused reporters may be left off the sequences shown. Each block holds one binder with its values, some of them ahead of it.

Tests used:
[1] = target: endogenous IKKγ (human (endogenous in A375)), Q9Y6K9; assay: co-IP; endogenous IKKγ immunoprecipitated from whole lysates of A375 melanoma cells, control or stably knocked down for FKBP51; immunoblot; conditions: remark: other sources report otherwise
[2] = target: T1, Flag-FKBP51 (pRK5 FKBP51 WT) (UniProt Q13451); assay: co-IP; HEK293T (legends: HEK293) co-transfected with Flag-FKBP51 or its mutants and HA-tagged partners; anti-Flag immunoprecipitation, blot with anti-HA, anti-TRAF2 or anti-IKKα/β; RIPA buffer; with or without FK506 (Figure 3B); the precipitating antibody is not told for Figures 3B and 4B
T1 sequence: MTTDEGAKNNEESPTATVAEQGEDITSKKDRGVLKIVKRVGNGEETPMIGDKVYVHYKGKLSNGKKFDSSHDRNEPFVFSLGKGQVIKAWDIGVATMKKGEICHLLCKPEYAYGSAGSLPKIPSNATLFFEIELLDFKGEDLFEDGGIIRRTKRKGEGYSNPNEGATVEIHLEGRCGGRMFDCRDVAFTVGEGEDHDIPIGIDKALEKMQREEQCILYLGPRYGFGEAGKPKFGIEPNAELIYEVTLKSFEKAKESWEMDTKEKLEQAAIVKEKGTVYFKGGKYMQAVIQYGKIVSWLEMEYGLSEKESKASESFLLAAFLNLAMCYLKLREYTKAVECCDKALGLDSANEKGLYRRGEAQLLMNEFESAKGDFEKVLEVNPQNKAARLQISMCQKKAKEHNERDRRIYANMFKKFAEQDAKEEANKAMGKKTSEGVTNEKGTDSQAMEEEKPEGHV

[3] = target: T2, HA-tagged human TRAF2 (human) (UniProt Q12933); assay: co-IP; HEK293 (text: HEK293T), silenced or not for FKBP51 (siRNA), transfected with combinations of HA-IKKα, -IKKβ, -IKKγ, -TAK1, -TRAF2 and Flag-FKBP51; precipitating antibody not told
T2 sequence: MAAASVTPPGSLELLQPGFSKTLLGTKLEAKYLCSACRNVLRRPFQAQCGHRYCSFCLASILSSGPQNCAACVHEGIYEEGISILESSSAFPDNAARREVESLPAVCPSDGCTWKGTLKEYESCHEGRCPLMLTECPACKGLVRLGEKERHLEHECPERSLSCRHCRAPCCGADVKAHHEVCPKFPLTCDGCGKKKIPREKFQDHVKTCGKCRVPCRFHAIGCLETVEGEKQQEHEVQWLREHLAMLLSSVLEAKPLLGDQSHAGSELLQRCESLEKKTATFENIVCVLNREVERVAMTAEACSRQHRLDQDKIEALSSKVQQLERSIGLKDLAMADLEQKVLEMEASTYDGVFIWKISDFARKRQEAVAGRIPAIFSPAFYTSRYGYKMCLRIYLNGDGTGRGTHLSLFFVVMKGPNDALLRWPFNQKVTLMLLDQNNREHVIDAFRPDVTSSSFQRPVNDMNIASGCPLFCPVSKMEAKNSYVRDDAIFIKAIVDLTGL

[4] = target: T2, HA-tagged human TRAF2 (human); assay: co-IP; as a5, the cells silenced for FKBP51 (siRNA)

- binding [1]: binds
B1: endogenous IKKα, O15111 1-745 (protein)
chain: MERPPGLRPGAGGPWEMRERLGTGGFGNVCLYQHRELDLKIAIKSCRLELSTKNRERWCHEIQIMKKLNHANVVKACDVPEELNILIHDVPLLAMEYCSGGDLRKLLNKPENCCGLKESQILSLLSDIGSGIRYLHENKIIHRDLKPENIVLQDVGGKIIHKIIDLGYAKDVDQGSLCTSFVGTLQYLAPELFENKPYTATVDYWSFGTMVFECIAGYRPFLHHLQPFTWHEKIKKKDPKCIFACEEMSGEVRFSSHLPQPNSLCSLVVEPMENWLQLMLNWDPQQRGGPVDLTLKQPRCFVLMDHILNLKIVHILNMTSAKIISFLLPPDESLHSLQSRIERETGINTGSQELLSETGISLDPRKPASQCVLDGVRGCDSYMVYLFDKSKTVYEGPFASRSLSDCVNYIVQDSKIQLPIIQLRKVWAEAVHYVSGLKEDYSRLFQGQRAAMLSLLRYNANLTKMKNTLISASQQLKAKLEFFHKSIQLDLERYSEQMTYGISSEKMLKAWKEMEEKAIHYAEVGVIGYLEDQIMSLHAEIMELQKSPYGRRQGDLMESLEQRAIDLYKQLKHRPSDHSYSDSTEMVKIIVHTVQSQDRVLKELFGHLSKLLGCKQKIIDLLPKVEVALSNIKEADNTVMFMQGKRQKEIWHLLKIACTQSSARSLVGSSLEGAVTPQTSAWLPPTSAEHDHSLSCVVTPQDGETSAQMIEENLNCLGHLSTIIHEANEEQGNSMMNLDWSWLTE

- binding [2]: binds
- binding [3]: binds
B2: HA-tagged human IKKβ (protein, UniProt O14920 1-756)
chain: MSWSPSLTTQTCGAWEMKERLGTGGFGNVIRWHNQETGEQIAIKQCRQELSPRNRERWCLEIQIMRRLTHPNVVAARDVPEGMQNLAPNDLPLLAMEYCQGGDLRKYLNQFENCCGLREGAILTLLSDIASALRYLHENRIIHRDLKPENIVLQQGEQRLIHKIIDLGYAKELDQGSLCTSFVGTLQYLAPELLEQQKYTVTVDYWSFGTLAFECITGFRPFLPNWQPVQWHSKVRQKSEVDIVVSEDLNGTVKFSSSLPYPNNLNSVLAERLEKWLQLMLMWHPRQRGTDPTYGPNGCFKALDDILNLKLVHILNMVTGTIHTYPVTEDESLQSLKARIQQDTGIPEEDQELLQEAGLALIPDKPATQCISDGKLNEGHTLDMDLVFLFDNSKITYETQISPRPQPESVSCILQEPKRNLAFFQLRKVWGQVWHSIQTLKEDCNRLQQGQRAAMMNLLRNNSCLSKMKNSMASMSQQLKAKLDFFKTSIQIDLEKYSEQTEFGITSDKLLLAWREMEQAVELCGRENEVKLLVERMMALQTDIVDLQRSPMGRKQGGTLDDLEEQARELYRRLREKPRDQRTEGDSQEMVRLLLQAIQSFEKKVRVIYTQLSKTVVCKQKALELLPKVEEVVSLMNEDEKTVVRLQEKRQKELWNLLKIACSKVRGPVSGSPDSMNASRLSQPGQLMSQPSTASNSLPEPAKKSEELVAEAHNLCTLLENAIQDTVREQDQSFTALDWSWLQTEEEEHSCLEQAS
- binding [4]: no binding (condition: FKBP51 silenced (siRNA))
